Data as given in PubChem BioAssay AID485313 (National Center for Advancing Translational Sciences (NCATS), 2010).
The whole screen tested about 320,000 compounds, of which about 7,600 (2.4%) were called active. The inconclusive results got no clear call from the source; some entries with a clear call stand among them for comparison. The call rests on the fitted dose curve; in most records, active means well fitted activation curve with a large enough effect; inconclusive means small, poorly fitted or top-dose-only effect; inactive means no such curve, though single readings can be large or run the other way. No potency is given beside an inconclusive call; the fits are too rough.

experiment: qHTS Assay for NPC1 Promoter Activators; settings: Huh7 NPC1 promoter luciferase reporter, 24 h; series mostly up to 9.22 µM; activation: at the top concentration; further: nearly all actives have a fitted effect of over 60% in size;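 on activation: reporter is driven by a mutant NPC1 promoter; % of control where 0% means no effect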
Method in brief: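 Huh7 reporter cells (NPC1 promoter driving luciferase) are dosed with compound for 24 h at 37 °C, 5% CO2; luciferase detection reagent is then added and luminescence measured after 10 min at ambient temperature.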
Potency means the concentration at half of the fitted maximal effect; tags describe the fitted curve by direction and shape.

Row | SMILES | activation | Potency
1 | C/C(=N/NC(=O)c1cc(-c2ccc(Br)s2)[nH]n1)c1ccco1 | inactive: 0.986% | –
2 | O=C(Nc1ccccc1C(=O)N/N=C/c1ccco1)c1ccc(Cl)cc1 | inactive: 11.7% | –
3 | CC(Oc1ccccc1)C(=O)NC1=NCCS1 (stereo not given) | – | inconclusive [activator, partial curve]
4 | Brc1ccc(-c2nc(-c3ccccc3)no2)o1 | – | active: 3.55 µM
5 | O=C(NCc1ccccc1Cl)C1CCC(=O)N(CC2CCCCC2)C1 (stereo not given) | inactive: -5.7% | –
6 | Cc1ccc(OCC(=O)c2ccc3c(c2)CCCC3)cc1C | – | active: 0.562 µM
7 | CCCCCCOc1ccc(OC(=O)c2cccnc2)cc1 | – | inconclusive [activator, partial curve]
8 | CC1CCC(NC(=O)Cn2cc3c(n2)CCCC3)CC1 (stereo not given) | – | inconclusive [activator, partial curve]
9 | O=C(c1cccs1)C1C(c2ccc(Br)cc2)NC(=S)NC1(O)C(F)(F)F (stereo not given) | – | inconclusive [activator, single point]
10 | CCCCNC(=O)C1CCN(Cc2ccc(OCc3ccccc3)c(OC)c2)CC1 | – | inconclusive [activator, single point]
11 | CCn1c(SCc2nc3ccccc3s2)nnc1-c1ccccc1 | inactive: 3.12% | –
12 | CCCS(=O)(=O)N1CCC(C(=O)NC2CCCCC2C)CC1 (stereo not given) | inactive: -4.06% | –
13 | COc1cccc(C(=O)N(Cc2ccco2)c2c(N)n(Cc3ccccc3)c(=O)[nH]c2=O)c1 | inactive: -2.03% | –
14 | CCOC(=O)c1sc(NC(=O)CSc2n[nH]c(CC(C)C)n2)nc1C | inactive: 0.52% | –
15 | CCCCc1ccc(NC(=O)CC(C)C)cc1 | – | inconclusive [activator, single point]
16 | CCC1(C)Cc2c(sc3nc(SC)n(Cc4ccccc4)c(=O)c23)CO1 (stereo not given) | – | inconclusive [activator, single point]
17 | C/C(=N\OCc1cccc(C(=O)O)c1)c1ccc(Cl)cc1 | – | inconclusive [activator, partial curve, poor fit]
18 | COCCC(=O)N1CCC(Oc2ccc(C(=O)N3C[C@@H]4CCC[C@H]3C4)cc2)CC1 | inactive: 0.167% | –
19 | Cc1ccc(-c2nc(NCc3ccco3)n(C(=O)c3ccco3)n2)cc1 | – | inconclusive [activator, partial curve]
20 | Cc1cc(O)c(NC(=O)c2ccc(C)c([N+](=O)[O-])c2)cc1C | – | inconclusive [activator, single point]
21 | Cc1cc(OCC(=O)N(C)Cc2ccccc2)ccc1Br | – | inconclusive [activator, single point]
22 | O=C(COC(=O)CCCOc1ccccc1)NNC(=O)c1ccc([N+](=O)[O-])cc1 | inactive: 3.22% | –
23 | COc1ccc(C(=O)Nc2ccc3ccccc3c2)cc1OC | – | active: 2.82 µM
24 | COc1ccc(C2Nc3ccccc3C(=O)N2c2ccc(C)cc2)cc1Cn1nnc2ccccc21 (stereo not given) | – | inconclusive [activator, partial curve]
25 | COc1ccc(OC)c(N(CC(=O)NCc2cccnc2)S(C)(=O)=O)c1 | – | inconclusive [activator, partial curve]

Row | SMILES | activation | Potency
26 | Cc1cc(C(=O)CSc2ccccc2)cc(C)c1O | – | inconclusive [activator, single point]
27 | O=C(N/N=C/c1ccc(Cl)cc1)Nc1ccccc1 | – | inconclusive [activator, partial curve]
28 | CCOC(=O)C1(Cc2ccccc2)CCCN(C(=O)C=C(C)C)C1 (stereo not given) | – | inconclusive [activator, partial curve]
29 | COc1ccc(/C=C/c2nnc(NC(=O)CSc3ccc(C)cc3)s2)cc1 | – | inconclusive [activator, single point]
30 | CCc1ccc(-c2cnc3ccccc3n2)cc1NC(=O)CNC(=O)c1ccccc1 | – | active: 3.55 µM
31 | COc1ccccc1-c1nc(-c2ccc(Br)cc2)no1 | – | inconclusive [activator, single point]
32 | Cc1csc(NC(=O)CSCC(=O)O)c1-c1nc2ccccc2s1 | inactive: -4.32% | –
33 | CCOC(=O)Nc1ccc(Oc2ccccc2)cc1 | – | inconclusive [activator, partial curve]
34 | NNc1nc(-c2ccccc2Cl)nc2ccccc12 | inactive: 9.39% | –
35 | Cc1cc(C)c(C#N)c(SCc2nc3ccccc3c(=O)[nH]2)n1 | – | inconclusive [activator, full curve]
36 | O=C(CSc1nc(=O)n2ccccc2n1)NCc1ccccc1Cl | inactive: -3.12% | –
37 | O=S(=O)(NCC1CCCO1)c1ccc(S(=O)(=O)N2CCc3ccccc3C2)cc1 (stereo not given) | inactive: 2.65% | –
38 | O=C(Nc1cccc(Cl)c1)c1ccc2c(=O)n3c(nc2c1)CCCCC3 | – | active: 1.58 µM
39 | Cc1ccc2c(Cl)c(C(=O)NCCc3ccccc3)sc2c1 | – | active: 3.55 µM
40 | CC(C)(C)c1ccc(C(=O)Nc2cccc(S(=O)(=O)NC3=NCCC3)c2)cc1 | – | active: 2.51 µM
41 | CCCNc1ncnc2c1cnn2-c1ccc(OC)cc1 | – | active: 0.501 µM
42 | O=C(Nc1ccc(Nc2ccccc2)cc1)c1ccccc1F | – | inconclusive [activator, partial curve]
43 | O=C(Nc1cccc(C(=O)Nc2ccc(Br)cc2)c1)c1ccccc1 | – | inconclusive [activator, partial curve]
44 | c1ccc(N/N=C(\Cc2nc3ccccc3[nH]2)c2ccccc2)cc1 | – | inconclusive [activator, partial curve]
45 | Cc1cc(C(=O)COC(=O)c2ccc[nH]c2=O)c(C)n1-c1ccccc1F | – | active: 0.316 µM
46 | O=C(NCCc1nc2ccccc2[nH]1)c1ccc([N+](=O)[O-])cc1 | inactive: 2.2% | –
47 | CCc1c(C)nc2cc(-c3cccc(Br)c3)[nH]n2c1=O | – | inconclusive [activator, single point]
48 | COCCn1c(C)cc(C(=O)CSc2ccc(NC(C)=O)cc2)c1C | – | inconclusive [activator, partial curve]
49 | O=C(c1cc(COc2c(F)cccc2F)on1)N1CCCCCC1 | – | inconclusive [activator, partial curve]
50 | COc1cccc(C(=O)Nc2cccc(OCC(=O)c3ccccc3)c2)c1 | inactive: 1.98% | –
